# Some of the results follow.
# B1: Cp ZmpB (Clostridium perfringens), Q0TR08 (protein)
# chain: MNKRKIAAIILATMITNLSATTIDVLAQELNTKNNSKVEVSHDDESHQARVSKFDLYNSDKLDAYNQEFQVSRSNIKSINNNGGKYNSSTIDKAIDGNLETHWETGKPNDANFTNEVVVTFNEITNIDRIVYSARRDSARGKGFAKEFEIYASLKDEGDDFNLVSSGEYTESTRDLVEIKFNPTDFKRLKFKFKKADQNWASAAEFMFYKEDKLNEKFNGLFTDSSMNKVSEEFNTLEKLNAFENELKDHPIYDLYKEGLNNARAILTETSENPTKATLGQITYNLNDDYNNQYRMPYKNIKAIKNNGRHYAAQNIEKAIDNDVNTYWETGTLNSSSFNNEVEVEFNDLVTLDRIVYGSRQSDLKGFAEEVYIYASRTSKGDTYKLVATGAHEATKGLVEAKFEPTEFKRVKFKFKKSKQNSATLNELMFYKPDEVYSSIPKLFTDGTMSELSEEFNSLEKINAFKEKAKNHPLYNDFNETIELAESLISNPRKEDVLELEMRGDSISEAKKRKVWNFQDWQITGLSARAGDKITVYVDVAEGDPTPTLLYKQSLTQHGGATSFQLKPGKNEITIPEINYESNGIPKDVIQGGDLFFTNYKSDSQKRAPKVRIEGASKYPVFILGKSDENEVMKELEAYVEKIKAEPKTTPNIFAVSSNKSLEFVQATYALDWYKKNNKTPKYTAEQWDQYIADAMGFWGFDNSKDVNSDFNFRIMPMVKNLSGGAFMNAGNGVIGIRPGNQDAILAANKGWGVAHELGHNFDTGGRTIVEVTNNMMPLFFESKYKTKTRITDQNIWENNTYPKVGLDDYSNNELYNKADSTHLAQLAPLWQLYLYDNTFYGKFERQFRERDFGNKNREDIYKSWVVAASDAMELDLTEFFARHGIRVDDKVKEDLAKYPKPDKKIYYLNDLAMNYKGDGFTENAKVSVSTSGSNGNIKLSFSVDDENKDNILGYEIRRDGKYVGFTSNDSFVDTKSNLDEDGVYVVTPYDRKLNTLNPIEVNALQPTLSVNPVITLALGEEFNEEEYIVAKDIKGNSLSESVKVKSSNVNTSKVGEYEVLYSLEDSKGNEYTKTSKVNVVSRKEYMSDLTPKQSSNGWGTVRKDKSISGGVIGLTRDGDFVDYNKGLGLHSNAEYVYDLEGKDYDYFESYVGVDKAMSSRPASSVIFKVLVDGEEKFNSGVMRSTTPQKYVKVDVKNAKELKLIVNDAGDGDSSDHASFGDAKLATLSSKPIIKGENLAYSMDEKVDLMKGITATDIEDGNITSKVQIKSSDFVEGKSGIFTVVYSVTDSDGLTSECSRTIAVTDKETQLSDLNWKSATIGSGSVRKDRAVSGNQIRLLNEDNSVETFAKGIGTHSYSEIVYNSEGYDIFDTWVGIDRHVADKKVSSVKFKVYVDGELKAETDVMRIDTPKKRLVVDVRNSKEIKLVVDVADNGNNWDHADWADAKFRNLAEYDASELNKAIEEAKKLDLNNYTEESSEALKNAISKGEEALLSKDKETINSALEELNKEMNSLVKVDLNAVINIPDKYLLKSIQNQLNKTGDITLGDMYSLTTLTLSGVEDLTGLENAKNLETLNMDYNEVKDLRPLSKLKKLNTLNAQEQFIAAGELKPSNGKVIGDSKVYNREGKNVAKTIRVVDKNGNTILEQDAKDEFTINTKDLSSGLYGVHVLFEDEGFSGVMFYLFNV
# What was measured:
# Assay in all cases: glycan array binding signal (z-score within array); higher = stronger binding
# Details in all cases: glycan notation: IUPAC condensed, linker removed
# [1] = biological target: Man(a1-2)Man(a1-3)[Man(a1-2)Man(a1-6)]Man
# In short: (§1)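 The binding signal is a Z-score computed within each array and averaged over linkers. Arrays of the same protein sequence at different concentrations or buffers were also averaged together. Data originate from 3228 arrays in the Consortium for Functional Glycomics database, kept only where the protein sequence was available.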
# [2] = biological target: Man(a1-2)Man(a1-3)[Man(a1-2)Man(a1-6)]Man(a1-6)[Man(a1-2)Man(a1-2)Man(a1-3)]Man
# In short: as §1
# [3] = biological target: Man(a1-2)Man(a1-3)[Man(a1-2)Man(a1-6)]Man(a1-6)[Man(a1-2)Man(a1-2)Man(a1-3)]Man(b1-4)GlcNAc(b1-4)GlcNAc
# In short: as §1
# [4] = biological target: Man(a1-2)Man(a1-3)[Man(a1-6)]Man(a1-6)[Man(a1-2)Man(a1-3)]Man(b1-4)GlcNAc(b1-4)GlcNAc
# In short: as §1
# [5] = biological target: Man(a1-2)Man(a1-6)[Man(a1-3)]Man(a1-6)[Man(a1-2)Man(a1-2)Man(a1-3)]Man
# In short: as §1
# [6] = biological target: Man(a1-2)Man(a1-6)[Man(a1-3)]Man(a1-6)[Man(a1-2)Man(a1-2)Man(a1-3)]Man(b1-4)GlcNAc(b1-4)GlcNAc
# In short: as §1
# Man(a1-3)[Man(a1-6)]Man = biological target: Man(a1-3)[Man(a1-6)]Man
# In short: as §1
# [7] = biological target: Man(a1-3)[Man(a1-6)]Man(a1-6)[Man(a1-2)Man(a1-3)]Man(b1-4)GlcNAc(b1-4)GlcNAc
# In short: as §1
# [8] = biological target: Man(a1-3)[Man(a1-6)]Man(a1-6)[Man(a1-3)]Man
# In short: as §1
# [9] = biological target: Man(a1-3)[Man(a1-6)]Man(a1-6)[Man(a1-3)]Man(b1-4)GlcNAc(b1-4)GlcNAc
# In short: as §1
# [10] = biological target: Man(a1-3)[Man(a1-6)]Man(b1-4)GlcNAc(b1-4)GlcNAc
# In short: as §1
# [11] = biological target: Man(a1-3)[Man(a1-6)]Man(b1-4)GlcNAc(b1-4)[Fuc(a1-6)]GlcNAc
# In short: as §1
# Man(a1-6)Man = biological target: Man(a1-6)Man
# In short: as §1
# Man(b1-4)GlcNAc = biological target: Man(b1-4)GlcNAc
# In short: as §1
# MurNAc(b1-4)GlcNAc = biological target: MurNAc(b1-4)GlcNAc
# In short: as §1
# Neu5Ac(a2-3)Gal = biological target: Neu5Ac(a2-3)Gal
# In short: as §1
# [12] = biological target: Neu5Ac(a2-3)Gal(b1-3)GalNAc
# In short: as §1
# [13] = biological target: Neu5Ac(a2-3)Gal(b1-3)GalNAc(b1-3)Gal(a1-4)Gal(b1-4)Glc
# In short: as §1
# [14] = biological target: Neu5Ac(a2-3)Gal(b1-3)GalNAc(b1-4)Gal(b1-4)Glc
# In short: as §1
# [15] = biological target: Neu5Ac(a2-3)Gal(b1-3)GalNAc(b1-4)[Neu5Ac(a2-3)]Gal(b1-4)Glc
# In short: as §1
# [16] = biological target: Neu5Ac(a2-3)Gal(b1-3)GalNAc(b1-4)[Neu5Ac(a2-8)Neu5Ac(a2-3)]Gal(b1-4)Glc
# In short: as §1
# [17] = biological target: Neu5Ac(a2-3)Gal(b1-3)GalNAc6S
# In short: as §1
# [18] = biological target: Neu5Ac(a2-3)Gal(b1-3)GlcNAc
# In short: as §1
# [19] = biological target: Neu5Ac(a2-3)Gal(b1-3)GlcNAc(b1-2)Man
# In short: as §1
# [20] = biological target: Neu5Ac(a2-3)Gal(b1-3)GlcNAc(b1-2)Man(a1-3)[GlcNAc(b1-4)][Neu5Ac(a2-3)Gal(b1-3)GlcNAc(b1-2)Man(a1-6)]Man(b1-4)GlcNAc(b1-4)GlcNAc
# In short: as §1
# [21] = biological target: Neu5Ac(a2-3)Gal(b1-3)GlcNAc(b1-2)Man(a1-3)[Neu5Ac(a2-3)Gal(b1-3)GlcNAc(b1-2)Man(a1-6)]Man(b1-4)GlcNAc(b1-4)GlcNAc
# In short: as §1
# [22] = biological target: Neu5Ac(a2-3)Gal(b1-3)GlcNAc(b1-2)[Neu5Ac(a2-3)Gal(b1-3)GlcNAc(b1-4)]Man(a1-6)[Neu5Ac(a2-3)Gal(b1-3)GlcNAc(b1-2)Man(a1-3)]Man(b1-4)GlcNAc(b1-4)GlcNAc
# In short: as §1
# [23] = biological target: Neu5Ac(a2-3)Gal(b1-3)GlcNAc(b1-3)Gal(b1-3)GlcNAc
# In short: as §1
# [24] = biological target: Neu5Ac(a2-3)Gal(b1-3)GlcNAc(b1-3)Gal(b1-4)GlcNAc
# In short: as §1
# [25] = biological target: Neu5Ac(a2-3)Gal(b1-3)GlcNAc(b1-3)GalNAc
# In short: as §1
binder,measurement,setting,value
B1,glycan array binding signal (z-score),[1],-0.245
same,glycan array binding signal (z-score),[2],-0.49
same,glycan array binding signal (z-score),[3],-0.276
same,glycan array binding signal (z-score),[4],-0.217
same,glycan array binding signal (z-score),[5],-0.405
same,glycan array binding signal (z-score),[6],-0.058
same,glycan array binding signal (z-score),Man(a1-3)[Man(a1-6)]Man,-0.117
same,glycan array binding signal (z-score),[7],-0.062
same,glycan array binding signal (z-score),[8],-0.053
same,glycan array binding signal (z-score),[9],-0.114
same,glycan array binding signal (z-score),[10],-0.046
same,glycan array binding signal (z-score),[11],-0.391
same,glycan array binding signal (z-score),Man(a1-6)Man,0.521
same,glycan array binding signal (z-score),Man(b1-4)GlcNAc,-0.23
same,glycan array binding signal (z-score),MurNAc(b1-4)GlcNAc,-0.274
same,glycan array binding signal (z-score),Neu5Ac(a2-3)Gal,-0.384
same,glycan array binding signal (z-score),[12],-0.016
same,glycan array binding signal (z-score),[13],0.032
same,glycan array binding signal (z-score),[14],0.164
same,glycan array binding signal (z-score),[15],1.03
same,glycan array binding signal (z-score),[16],-0.24
same,glycan array binding signal (z-score),[17],-0.457
same,glycan array binding signal (z-score),[18],0.112
same,glycan array binding signal (z-score),[19],-0.142
same,glycan array binding signal (z-score),[20],-0.1
same,glycan array binding signal (z-score),[21],0.896
same,glycan array binding signal (z-score),[22],0.01
same,glycan array binding signal (z-score),[23],-0.131
same,glycan array binding signal (z-score),[24],-0.218
same,glycan array binding signal (z-score),[25],-0.372

# Reference: the supplement of paper PMC8728848
